# Measurements reported in the supplement of paper PMC3334620.
# Whole data set: some 33,000 sequences, median “E-score (-0.5 to 0.5)” near -0.056, cut for the highest 2% near 0.38. Some of the results follow.
# Biological target: Stb4 (UniProt P50104)
# Assay: PBM E-score (8-mer binding enrichment) (E-score (-0.5 to 0.5)); higher = stronger / more preferred TF binding; most listed sequences are background and not binding sites
# Details: protein concentration: 200 nM; construct: GST-DNA-binding domain
# Procedure, shortened: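 GST-tagged yeast TFs (full-length or DNA-binding domain) were made by PURExpress in vitro transcription/translation and applied at about 100-200 nM to universal all-10-mer Agilent arrays. The arrays were made double-stranded by primer extension, on fresh or once-stripped slides. Bound protein was detected with fluorescent anti-GST, and scans were normalised with masliner. Each ungapped eight-base word, pooled with its reverse complement, received an E-score (modified Wilcoxon-Mann-Whitney statistic) from the Universal PBM Analysis Suite.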
row,Sequence,PBM E-score
1,ATCTTCGC,0.016
2,ATGGAATG,0.193
3,TCGTAGAA,-0.165
4,ATAGGTGC,-0.156
5,CCCCGGCA,0.18
6,CATTACAG,-0.281
7,AGGCATAG,-0.118
8,CGAGATAA,0.148
9,CGGGTTAA,0.342
10,CGCCATCA,-0.149
11,GGGGTGTA,-0.0246
12,AGCACCTA,-0.196
13,CATGACGG,0.018
14,AGCACAAG,-0.176
15,CGCGCCCG,0.215
16,ACGCTCAA,-0.263
17,AAGCCTGT,-0.0187
18,CGCCGCAC,-0.00742
19,CGACTGTC,-0.134
20,CGCAAATC,0.0403
21,CTGCCACA,-0.128
22,GTTACCTA,-0.218
23,CAGGCTAA,-0.169
24,CGAAAACA,0.123
25,AGATCCGA,0.477

row,Sequence,PBM E-score
1,ATTTCCGC,0.307
2,CGAGAGCA,0.173
3,AACCGGTC,0.178
4,CTTGAAAA,-0.128
5,AATTTCCC,0.142
6,AGACCGGA,0.238
7,ATCCCCTA,-0.0794
8,ACGAGATG,-0.03
9,GCTCTCTA,-0.162
10,GCGTAAAA,0.0254
11,ATGCGATG,-0.125
12,CGTTGAAA,-0.0522
13,CTTTTAGC,-0.184
14,TCACCAAA,-0.199
15,CCACTGAA,-0.0394
16,CATTAGCC,0.0405
17,AGCCGACC,0.293
18,GCGAGCAA,-0.172
19,CTCTAAAC,-0.139
20,AACTCTAA,0.0717
21,GGATGATA,0.0749
22,CTGGCCAG,-0.213
23,CGGCAGAG,0.165
24,AAGTCATG,0.0257
25,ACACATTC,0.0594

row,Sequence,PBM E-score
1,CACTGAGA,-0.289
2,AAATGAGA,-0.234
3,AGAGGGAA,-0.182
4,CCGCAACC,0.225
5,AATCGTTG,-0.121
6,ATCCCGAA,0.432
7,TAAATTGA,-0.112
8,AGAGCATG,-0.348
9,AATGTTCT,-0.276
10,CTACTAAG,-0.0404
11,GTAGTCTA,-0.131
12,CGGTACTA,0.228
13,TGCATACA,0.0395
14,GCGGACGA,0.182
15,ACCTGAAG,-0.127
16,AGCGCGTA,-0.123
17,AAATAGGT,-0.163
18,AGTAAACT,0.0611
19,GAAAGCTA,0.0825
20,AGGGGTAG,0.019
21,AGACAGTA,-0.0155
22,GATTTTCA,0.179
23,AACGTCTG,-0.0132
24,AATATCAT,-0.053
25,TCCACAAA,0.0358

row,Sequence,PBM E-score
1,ACTCAACT,0.0475
2,AATCCTAA,-0.168
3,AAGCCACT,-0.215
4,ACCCCTCC,0.0757
5,ACGAGACT,-0.188
6,CTAGCAAA,-0.0447
7,AAGGAGAT,-0.151
8,CCGCAGGC,0.104
9,CATTCGAC,0.0379
10,ACCCTACA,-0.0695
11,AAGCAGAA,-0.0753
12,AATTGGGC,-0.186
13,CCTAGTGC,-0.211
14,CTACGGCC,-0.0222
15,TGAATGCA,-0.145
16,CGTTCCCC,-0.014
17,CCGGAATC,0.38
18,CGGGGCAC,0.0761
19,ACGATTTA,-0.0313
20,GGAATCCA,0.0473
21,GGTAACGA,0.0242
22,ACGTATGA,-0.0216
23,AGGAAGGG,-0.186
24,ACTGTAGC,-0.197
25,AAAAAAAA,0.13

row,Sequence,PBM E-score
1,CTCTAGCA,-0.322
2,AATCTTGG,-0.197
3,CGGCCGTA,0.167
4,CCGCCAGG,-0.144
5,CAGTGAGC,-0.174
6,TCCTCCCA,-0.00836
7,CACCCACA,-0.15
8,CCACGGGA,0.223
9,GATTATCC,0.23
10,AGGTACAC,-0.0592
11,TAGACCCA,-0.174
12,CGCCCCCA,-0.155
13,GGAGCCAA,0.0271
14,GCCGGGGA,0.211
15,AACGCGGA,0.321
16,GCTACTAA,-0.116
17,ATAGCATA,-0.109
18,ATTAGGGG,-0.0642
19,AGGGGTTG,-0.217
20,ATGGTACA,-0.159
21,GAAGAAGC,-0.0404
22,TGCGACAA,-0.0541
23,ACCCGAAC,0.463
24,CTCTCCCC,0.0536
25,CGTCACGA,-0.0927

row,Sequence,PBM E-score
1,AGGCACTC,-0.0316
2,GCTTTTCA,-0.0237
3,CGGCTACA,0.269
4,AATAGATA,-0.03
5,AATGTTGT,-0.175
6,CTCGCGAG,-0.0385
7,GTCACGTA,-0.151
8,CGGTCCCA,0.107
9,CCGGCGAA,0.228
10,AGTAAGTA,-0.0589
11,ACCCTGTC,-0.0532
12,AATCCGGG,0.306
13,CACGCCGA,0.261
14,CTCTCTAC,-0.221
15,CCGACACG,0.297
16,ATGGGTGA,-0.0632
17,GTTCCACA,-0.00185
18,CGGTCGCA,-0.0174
19,GGGCACCA,-0.0509
20,ACTGGTTC,0.0823
21,CCGCTGCG,0.0615
22,ACTATTAT,0.113
23,GGAGCCAC,-0.0691
24,ATGGTCTC,0.0617
25,ATCGAGCA,-0.00212

row,Sequence,PBM E-score
1,CAAATGGG,-0.329
2,CGCAGGCA,-0.169
3,CCAACCAG,-0.0913
4,ATACGTAA,-0.17
5,AGCTCGAT,-0.0276
6,GATCTGGA,-0.036
7,GAAGCTAA,-0.00411
8,CTGTAAAA,-0.054
9,GCTACTCC,0.0762
10,ACAGTATA,-0.146
11,AAAAAATA,0.173
12,AGTTCTCA,-0.0891
13,TATACCAA,0.0776
14,CGGCGAAG,0.119
15,GTATTGAA,-0.0765
16,TCTGGCAA,-0.0461
17,GCTATCAA,0.0638
18,CGCGCGTA,0.0546
19,TGTCTCAA,-0.118
20,GTCTACCA,-0.162
21,AACAAATC,0.0948
22,AGGTTATG,-0.0172
